From patent publication US20250297021A1 (SHANDONG SIMCERE BIOPHARMACEUTICAL CO NO 1, published 2025)
Numbering of substitutions follows the chain as printed.

T1: BCMA expressed endogenously on U266 and H929 cells (UniProt Q02223 1-184, limits assumed)
T1 construct: whole, on cells; The cell line (U266 or H929) is named under assay in each row; also called B cell maturation antigen; CD269
T1 sequence (looked up): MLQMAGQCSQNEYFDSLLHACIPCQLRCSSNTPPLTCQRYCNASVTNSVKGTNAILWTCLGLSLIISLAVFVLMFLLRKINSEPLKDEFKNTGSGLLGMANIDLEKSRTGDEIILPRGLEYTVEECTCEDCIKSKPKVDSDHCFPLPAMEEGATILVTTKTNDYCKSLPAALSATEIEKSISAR

T2: human BCMA-His protein (human, UniProt Q02223 1-54)
T2 construct: Analyte in the SPR assay; also called human BCMA protein; BCMA antigen protein; not shown: His tag
T2 sequence (looked up): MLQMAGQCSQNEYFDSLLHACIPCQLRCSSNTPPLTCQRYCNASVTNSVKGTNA

B1: BCMA-05 VL3VH2a (Fc fusion)
scFv: EGQMVQSGAEVKKPGSSVKVSCKASGYMFTDHTFHWVRQAPGQGLEWMGYIYPRDQNTKYNEKFKGRVTITADKSTSTAYMELSSLRSEDTAVYYCARAGYYGSSHAMDYWGQGTTVTVSSGGGGSGGGGSGGGGSDIVMTQSPDSLAVSLGERATINCKASQDVSTAVAWYQQKPGQSPRLLIYSASSRYTGVPDRFSGSGSGTDFTLTISSLQAEDVAVYYCQQLYSTPWTFGGGTKVEIK[human IgG1 Fc with C220S (EU numbers) not spelt out]
notes: humanized scFv-Fc
B2: BCMA-04 VL2VH3a (Fc fusion)
scFv: EVQLVQSGAEVKKPGSSVKVSCKASGYSFTSYGISWVRQAPGQGLEWMGEIYPRDQITYYNEKFKGRVTLTADKSTSTAYMELSSLRSEDTAVYYCARHDYYYVNSVSAMDYWGQGTTVTVSSGGGGSGGGGSGGGGSDIQMTQSPSSLSASVGDRVTITCKSSQSLLYSSNQKNYLAWYQQKPGKSPKLLIYWASTRYSGVPSRFSGSGSGTDFTLTISSLQPEDFATYYCQQYYIYPWTFGGGTKVEIK[human IgG1 Fc with C220S (EU numbers) not spelt out]
B3: BCMA-02 VL3VH8 (Fc fusion)
scFv: EVQLVESGGGVVQPGRSLRLSCASNAYEFPSYDMSWVRQAPGKGLELVAAINSDGGITYYPDTMERRFTISRDNTKKTLYLQMSSLRAEDTAVYYCARHGYGGGAYVLDYWGQGTTVTVSSGGGGSGGGGSGGGGSDIQMTQSPSSVSASVGDRVTITCKASQNVGTAVAWYQQKPGKSPKVLIYSASSRYTGVPSRFSGSGSGTDFTLTISSLQPEDFADYYCQQYSNYHLTFGQGTKLEIK[human IgG1 Fc with C220S (EU numbers) not spelt out]
notes: humanized scFv-Fc
B4: BCMA-02 VL3VH9 (Fc fusion)
scFv: B3 scFv with A23E
notes: humanized scFv-Fc
B5: BCMA-mAb04 (Fc fusion)
scFv: QVQLQQSGAELARPGASVDLSCKASGYSFTSYGISWVKLRTGQGLEWIGEIYPRDDITYYNEKFKGKTTLTADKSSSTAYMELRSLTSEDSAVYFCARHDYYYVNSVSAMDYWGQGTSVTVSSGGGGSGGGGSGGGGSDIVMSQSPSSLAVSVGEKVTMSCKSSQSLLYSSNQKNYLAWYQQKPGQSPKLLIYWASTRYSGVPDRFTGSGSGTDFTLTVSSVRAEDLALYYCQQYYIYPWTFGGGTKLEIK[human IgG1 Fc with C220S (EU numbers) not spelt out]
notes: human-mouse chimeric scFv-Fc
B6: BCMA-06 VL1aVH2 (Fc fusion)
scFv: EVKLVESGGGLVQPGGSLRLSCAASGIDFSRYWMSWVRQAPGKGLEWVAEINPDSSTINYAPSLKDRFTISRDNAKNSLYLQMNSLRAEDTAVYYCAIFYYANYYAMDYWGQGTTVTVSSGGGGSGGGGSGGGGSDIQMTQSPSSVSASVGDRVTITCKASQNVDTNVAWYQQKPGKSPKALIYSASYRFSGVPSRFSGSGSGTDFTLTISSLQPEDFATYYCQQYQGYPFTFGQGTKLEIK[human IgG1 Fc with C220S (EU numbers) not spelt out]
B7: BCMA-06 VL1aVH1 (Fc fusion)
scFv: B6 scFv with K3Q
B8: BCMA-02 VL4VH8 (Fc fusion)
scFv: EVQLVESGGGVVQPGRSLRLSCASNAYEFPSYDMSWVRQAPGKGLELVAAINSDGGITYYPDTMERRFTISRDNTKKTLYLQMSSLRAEDTAVYYCARHGYGGGAYVLDYWGQGTTVTVSSGGGGSGGGGSGGGGSDIVMTQSPDSLAVSLGERATINCKASQNVGTAVAWYQQKPGQSPKVLIYSASSRYTGVPDRFSGSGSGTDFTLTISSLQAEDVAVYYCQQYSNYHLTFGQGTKLEIK[human IgG1 Fc with C220S (EU numbers) not spelt out]
notes: humanized scFv-Fc
B9: BCMA-02 VL4VH9 (Fc fusion)
scFv: B8 scFv with A23E
notes: humanized scFv-Fc
B10: BCMA-mAb02 (Fc fusion)
scFv: EVQLVESGGDLVQPGESLKLSCESNAYEFPSYDMSWVRKTPEKRLELVAAINSDGGITYYPDTMERRFIISRDNTKKTLYLQMSSLRSEDTALYYCARHGYGGGAYVLDYWGQGTSVTVSSGGGGSGGGGSGGGGSDIVMTQSQKFMSTTVGDRVRITCKASQNVGTAVAWYQQKPGQSPKVLIYSASSRYTGVPDRFTGSGSGTDFTLTINNMQSEDLADYFCQQYSNYHLTFGTGTKLELK[human IgG1 Fc with C220S (EU numbers) not spelt out]
notes: human-mouse chimeric scFv-Fc
B11: BCMA-mAb05 (Fc fusion)
scFv: QGQMQQSDAELVKPGASVQISCKASGYMFTDHTFHWMRQRPEQGLEWIGYIYPRDDNTKYNEKFKGKATLTADKSSSTAYIHLNSLTSEDSAVYFCARAGYYGSSHAMDYWGQGTSVTVSSGGGGSGGGGSGGGGSDIVMTQSHKFMSTSVGDRVSITCKASQDVSTAVAWYQQKPGQSPRLLIYSASSRYTGVPDRFTGSGSGTDFTFTISSVQTEDLAVYYCQQLYSTPWTFGGGTKLEIK[human IgG1 Fc with C220S (EU numbers) not spelt out]
notes: human-mouse chimeric scFv-Fc
B12: BCMA-05 VL1VH2a (Fc fusion)
scFv: EGQMVQSGAEVKKPGSSVKVSCKASGYMFTDHTFHWVRQAPGQGLEWMGYIYPRDQNTKYNEKFKGRVTITADKSTSTAYMELSSLRSEDTAVYYCARAGYYGSSHAMDYWGQGTTVTVSSGGGGSGGGGSGGGGSDIQMTQSPSSLSASVGDRVTITCKASQDVSTAVAWYQQKPGKSPRLLIYSASSRYTGVPSRFSGSGSGTDFTFTISSLQPEDIATYYCQQLYSTPWTFGGGTKVEIK[human IgG1 Fc with C220S (EU numbers) not spelt out]
notes: humanized scFv-Fc
B13: BCMA-05 VL2VH2a (Fc fusion)
scFv: B12 scFv with S196D
notes: humanized scFv-Fc

The binders below were run against T1, BCMA expressed endogenously on U266 and … (assay: FACS on H929 cells).
With B1 the EC50 was 15.4 nM and the “Maximum mean fluorescence intensity” value was 14100. With B2 the EC50 was 11 nM and the “Maximum mean fluorescence intensity” value was 8850. In the case of B3, the EC50 is reported as 16.4 nM and the “Maximum mean fluorescence intensity” value is reported as 14100. For B4, the EC50 was 20.6 nM and the “Maximum mean fluorescence intensity” value was 14600. With B5 the EC50 was 27.2 nM and the “Maximum mean fluorescence intensity” value was 8640. In the case of B6, the EC50 is reported as 13.4 nM and the “Maximum mean fluorescence intensity” value is reported as 19800. In the case of B7, the EC50 is reported as 12 nM and the “Maximum mean fluorescence intensity” value is reported as 17400. For B8, the EC50 was 16.4 nM and the “Maximum mean fluorescence intensity” value was 15300. B9 was tested, and the EC50 was 18.6 nM and the “Maximum mean fluorescence intensity” value was 15200. With B10 the EC50 was 14.9 nM and the “Maximum mean fluorescence intensity” value was 14300. In the case of B11, the EC50 is reported as 9.83 nM and the “Maximum mean fluorescence intensity” value is reported as 14200. With B12 the EC50 was 6.54 nM and the “Maximum mean fluorescence intensity” value was 15100. With B13 the EC50 was 8.72 nM and the “Maximum mean fluorescence intensity” value was 14400.

The binders below were run against T1, BCMA expressed endogenously on U266 and … (assay: FACS on U266 cells).
How it was run: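 Binding measured by flow cytometry as mean fluorescence intensity, with EC50 from curve fitting. Antibody incubated 1 h at 4° C with cells suspended at 2×10⁶/ml in PBS containing 2% FCS, followed by washes.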
In the case of B1, the EC50 is reported as 18.4 nM and the “Maximum mean fluorescence intensity” value is reported as 2240. With B2 the EC50 was 16.2 nM and the “Maximum mean fluorescence intensity” value was 3720. With B3 the EC50 was 21.6 nM and the “Maximum mean fluorescence intensity” value was 2730. In the case of B4, the EC50 is reported as 42.5 nM and the “Maximum mean fluorescence intensity” value is reported as 2760. With B5 the EC50 was 47.6 nM and the “Maximum mean fluorescence intensity” value was 2980. With B6 the EC50 was 528 nM and the “Maximum mean fluorescence intensity” value was 4030. B7 was tested, and the EC50 was 67.3 nM and the “Maximum mean fluorescence intensity” value was 1710. In the case of B8, the EC50 is reported as 34.2 nM and the “Maximum mean fluorescence intensity” value is reported as 2730. For B9, the EC50 was 51 nM and the “Maximum mean fluorescence intensity” value was 2620. With B10 the EC50 was 17.6 nM and the “Maximum mean fluorescence intensity” value was 2890. In the case of B11, the EC50 is reported as 10.3 nM and the “Maximum mean fluorescence intensity” value is reported as 2370. For B12, the EC50 was 9.27 nM and the “Maximum mean fluorescence intensity” value was 2640. With B13 the EC50 was 16.6 nM and the “Maximum mean fluorescence intensity” value was 2450.

Each binder was assayed against T2, human BCMA-His protein (assay: SPR, antibody captured on Protein A chip, BCMA-His as analyte).
Procedure: A sample buffer and a running buffer were HBS-EP+ (10 mM HEPES, 150 mM NaCl, 3 mM EDTA and 0.05% surfactant P20) (GE Healthcare; BR-1006-69). The flow-through cell was set to 25° C. The sample block was set to 16° C. Both were pretreated with the running buffer. In each cycle, an antibody to be tested was first captured with a Protein A chip, and then a single concentration of BCMA antigen protein was injected. The binding and dissociation processes of the antibody and the antigen protein were recorded, and finally Glycine pH 1.5 (GE Helthcare; BR-1003-54) was used to complete chip regeneration. Binding was measured by injecting different concentrations of BCMA-His in solution for 240 s with a flow rate of 30 μL/min. The concentration started from 200 nM (see the detailed results for the actual concentration in the test) and was diluted at 1:1, making a total of 5 concentrations. The dissociation phase was monitored for up to 600 s and was triggered by switching from sample solution to running buffer. The surface was regenerated by washing with a 10 mM glycine solution (pH 1.5) for 30 s at a flow rate of 30 μL/min. Bulk refractive index difference was corrected by subtracting the response obtained from the goat anti-human Fc surface. Blank injection was also subtracted (=double reference). For calculation of apparent KD and other kinetic parameters, Langmuir 1:1 model was used. The binding rate (Kₐ), dissociation rate (Kdis) and binding affinity (KD) of the chimeric antibodies to human BCMA protein are shown in the table, wherein REGN5459-hlgG1 and HPN217-hHcAb antibodies were used as controls.
The specific method was the same as that in Example 6. The binding rate (Kₐ), dissociation rate (Kdis) and binding affinity (KD) of the humanized antibodies to human BCMA protein are shown Table 38, wherein REGN5459-hlgG1 antibody is used as a control.
B1 gave a Kd of 0.0281 nM, a koff of 2.67e-05 s⁻¹ and a kon of 947000 M⁻¹ s⁻¹. With B2 the Kd was 0.124 nM, the koff was 0.000114 s⁻¹ and the kon was 926000 M⁻¹ s⁻¹. B3 showed a Kd of 0.412 nM, a koff of 0.000356 s⁻¹ and a kon of 863000 M⁻¹ s⁻¹. Work on B4 yielded a Kd of 0.415 nM, a koff of 0.000356 s⁻¹ and a kon of 858000 M⁻¹ s⁻¹. B5 gave a Kd of 0.097 nM, a koff of 0.000104 s⁻¹ and a kon of 1.07e+06 M⁻¹ s⁻¹. Work on B6 yielded a Kd of 18.5 nM, a koff of 0.00501 s⁻¹ and a kon of 271000 M⁻¹ s⁻¹. B7 showed a Kd of 19.3 nM, a koff of 0.00532 s⁻¹ and a kon of 276000 M⁻¹ s⁻¹. Binder B8 has a Kd of 0.314 nM, a koff of 0.00034 s⁻¹ and a kon of 1.08e+06 M⁻¹ s⁻¹. In the case of B9, the Kd is reported as 0.307 nM, the koff is reported as 0.000334 s⁻¹ and the kon is reported as 1.09e+06 M⁻¹ s⁻¹. Work on B10 yielded a Kd of 0.236 nM, a koff of 0.000272 s⁻¹ and a kon of 1.16e+06 M⁻¹ s⁻¹. In the case of B11, the Kd is reported as 0.0186 nM, the koff is reported as 2.39e-05 s⁻¹ and the kon is reported as 1.29e+06 M⁻¹ s⁻¹. With B12 the Kd was 0.0258 nM, the koff was 2.43e-05 s⁻¹ and the kon was 942000 M⁻¹ s⁻¹. Work on B13 yielded a Kd of 0.0267 nM, a koff of 2.6e-05 s⁻¹ and a kon of 975000 M⁻¹ s⁻¹.
